Measured values published in the supplement of paper PMC3334620.
In all, about 33,000 sequences were measured (“E-score (-0.5 to 0.5)”: median about -0.032, highest 2% from about 0.36 on). Some of the results follow.

What follows are sequences tested against T1, Sko1 (UniProt Q02100) (assay: PBM E-score (8-mer binding enrichment) (E-score (-0.5 to 0.5)); higher = stronger / more preferred TF binding; most listed sequences are background and not binding sites). Conditions: protein concentration: 200 nM; construct: GST-full length.
T1 sequence: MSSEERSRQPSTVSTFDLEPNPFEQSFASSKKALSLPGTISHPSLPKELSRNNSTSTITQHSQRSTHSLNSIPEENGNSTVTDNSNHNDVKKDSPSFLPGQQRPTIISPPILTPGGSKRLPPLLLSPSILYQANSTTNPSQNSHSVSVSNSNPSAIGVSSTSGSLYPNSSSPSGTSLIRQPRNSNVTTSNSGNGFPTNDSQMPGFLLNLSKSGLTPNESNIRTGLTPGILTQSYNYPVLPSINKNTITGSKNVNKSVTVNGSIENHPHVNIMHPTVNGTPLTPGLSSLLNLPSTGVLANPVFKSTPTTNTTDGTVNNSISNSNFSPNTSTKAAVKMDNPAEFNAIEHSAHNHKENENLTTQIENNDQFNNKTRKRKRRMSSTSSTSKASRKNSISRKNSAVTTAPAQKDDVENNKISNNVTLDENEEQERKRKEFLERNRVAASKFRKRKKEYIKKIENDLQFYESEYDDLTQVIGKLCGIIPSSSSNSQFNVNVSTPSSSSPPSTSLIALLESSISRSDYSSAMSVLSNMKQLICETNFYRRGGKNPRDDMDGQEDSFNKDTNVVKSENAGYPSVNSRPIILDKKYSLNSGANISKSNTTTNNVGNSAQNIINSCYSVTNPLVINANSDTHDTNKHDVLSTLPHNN
How it was run: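 Yeast transcription factors, full-length or as DNA-binding domains, were expressed with a GST tag using PURExpress in vitro transcription/translation. At about 100-200 nM they were applied to universal all-10-mer Agilent arrays, double-stranded by primer extension on fresh or once-stripped slides. Fluorescent anti-GST detected bound protein, and masliner normalised the scans. E-scores for ungapped eight-base words, pooled with reverse complements, came from the Universal PBM Analysis Suite.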
In the case of TCGGCCGA, the “PBM E-score” value is reported as -0.13. AGCCCAGG was tested, and the “PBM E-score” value was -0.331. In the case of TCCAGACA, the “PBM E-score” value is reported as -0.215. GACTTGTA was tested, and the “PBM E-score” value was -0.168. For AACTGAGT, the “PBM E-score” value was -0.0287. CCTCCTCA was tested, and the “PBM E-score” value was -0.248. AATGGTAT was tested, and the “PBM E-score” value was 0.0827. For AGACACGC, the “PBM E-score” value was 0.126. In the case of GTAACTCA, the “PBM E-score” value is reported as 0.0667. In the case of GAGACGCC, the “PBM E-score” value is reported as -0.0776. ACACTGCG was tested, and the “PBM E-score” value was 0.132. CAAACGGA was tested, and the “PBM E-score” value was -0.151. For AAGGAGGG, the “PBM E-score” value was -0.182. For CTACCTCC, the “PBM E-score” value was -0.12. With AAAGTGCA the “PBM E-score” value was 0.152. For AAAAAGGC, the “PBM E-score” value was 0.012. In the case of ACTGCCCT, the “PBM E-score” value is reported as -0.232. In the case of ACCCATAC, the “PBM E-score” value is reported as 0.0715. CGTGGCCC was tested, and the “PBM E-score” value was 0.0251. AATCTCGA was tested, and the “PBM E-score” value was -0.00957. In the case of CGGATAAG, the “PBM E-score” value is reported as -0.258. With GGGGTGCA the “PBM E-score” value was -0.175. For CGACTGCG, the “PBM E-score” value was -0.222. With ACCATATA the “PBM E-score” value was 0.214. For CGAAACAA, the “PBM E-score” value was 0.116. For ACCCTAGT, the “PBM E-score” value was -0.038. ACCAAATG was tested, and the “PBM E-score” value was 0.034. In the case of GTCATGAC, the “PBM E-score” value is reported as 0.392. With AAGAGCGA the “PBM E-score” value was -0.182. GAAACTCA was tested, and the “PBM E-score” value was 0.0159. For GCAATCCA, the “PBM E-score” value was 0.0586. With ATTTCGAC the “PBM E-score” value was 0.0685. For GGGCCCAC, the “PBM E-score” value was -0.154. ACCGCTCA was tested, and the “PBM E-score” value was 0.0832. In the case of AATTTGAT, the “PBM E-score” value is reported as 0.155. CGTCGCTC was tested, and the “PBM E-score” value was 0.0409. In the case of CGGGAGTA, the “PBM E-score” value is reported as -0.145. In the case of GCAACAGC, the “PBM E-score” value is reported as -0.141. For ACTCGGAA, the “PBM E-score” value was -0.0833. ACAACCGC was tested, and the “PBM E-score” value was 0.0415. TTCAGCAA was tested, and the “PBM E-score” value was 0.194. For CCCCAATC, the “PBM E-score” value was -0.0519. TATCGGCA was tested, and the “PBM E-score” value was -0.103. With ATAACTAA the “PBM E-score” value was 0.221. With CACGTCAG the “PBM E-score” value was 0.462. For ATGTTTAC, the “PBM E-score” value was 0.18. For CGTAGGAG, the “PBM E-score” value was 0.208. In the case of ACTGGTCC, the “PBM E-score” value is reported as -0.224. For TCCATCAA, the “PBM E-score” value was 0.108. In the case of GGAGGTGA, the “PBM E-score” value is reported as 0.0757. For AAACCTTG, the “PBM E-score” value was 0.0199. GGCTGCAC was tested, and the “PBM E-score” value was -0.158. GGCATTAA was tested, and the “PBM E-score” value was -0.124. AGTCAACC was tested, and the “PBM E-score” value was -0.212. GATGCTTA was tested, and the “PBM E-score” value was -0.0959. For GCGCAGAA, the “PBM E-score” value was 0.168. With AAGTATCT the “PBM E-score” value was 0.0671. With CGCTCAAC the “PBM E-score” value was -0.0742. For ACCCCCGC, the “PBM E-score” value was -0.194. With AGCAGGAT the “PBM E-score” value was -0.186. For ATAATAAT, the “PBM E-score” value was 0.214. In the case of ACATTCGA, the “PBM E-score” value is reported as -0.027. In the case of GTTGGGAA, the “PBM E-score” value is reported as -0.0188. With GAACAGAC the “PBM E-score” value was -0.145. With GGGATATA the “PBM E-score” value was -0.126. In the case of AGCCGGGC, the “PBM E-score” value is reported as -0.148. GAGCAGGC was tested, and the “PBM E-score” value was -0.247. For ATCATAAG, the “PBM E-score” value was 0.175. TAGGCCAA was tested, and the “PBM E-score” value was -0.131. AGCCCCGA was tested, and the “PBM E-score” value was -0.159. In the case of ATTCGATC, the “PBM E-score” value is reported as 0.0679. In the case of GTGGGTAA, the “PBM E-score” value is reported as -0.0262. For ACTGAAGT, the “PBM E-score” value was -0.0247. GACAGGCA was tested, and the “PBM E-score” value was -0.148. In the case of AAAGTATT, the “PBM E-score” value is reported as 0.0493. For CGGTGTAA, the “PBM E-score” value was -0.193. With CACGCGCC the “PBM E-score” value was 0.081. GGTATAGA was tested, and the “PBM E-score” value was -0.13. In the case of TTATGGAA, the “PBM E-score” value is reported as 0.00806. In the case of GTCAGAGA, the “PBM E-score” value is reported as 0.116. ATTGACGA was tested, and the “PBM E-score” value was 0.326. With ATGCAAAC the “PBM E-score” value was 0.108. In the case of CCCATAAA, the “PBM E-score” value is reported as -0.0727. In the case of CAGCCTGA, the “PBM E-score” value is reported as -0.0976. For ACTTTTAC, the “PBM E-score” value was 0.246. ACAGGAGT was tested, and the “PBM E-score” value was -0.0316. With AGCACGGC the “PBM E-score” value was -0.175. In the case of ACTTAGAA, the “PBM E-score” value is reported as 0.0244. In the case of GAGTCCCC, the “PBM E-score” value is reported as -0.405. With ATCCAATC the “PBM E-score” value was -0.0196. With TACGCTGA the “PBM E-score” value was 0.0719. For AGAAATAA, the “PBM E-score” value was 0.179. AATGGTGA was tested, and the “PBM E-score” value was 0.0269. For GCCATAGA, the “PBM E-score” value was -0.012.
